Reference: PubChem BioAssay AID1347073 (National Center for Advancing Translational Sciences (NCATS), 2019)
About 200 (0.44%) of roughly 45,000 compounds were called active. Inconclusive results (about 7%) are left out. Calls come from the whole dose curve; as a rule, active = well fitted activation curve with a large enough effect; inconclusive = small, poorly fitted or top-dose-only effect; inactive = no such curve, though single readings can be large or run the other way. The list shows a part of the results.

Test: qHTS of TDP-43 Inhibitors: NCGC Sytravon Library Screen; note: 0% is about no effect; nearly all actives have a fitted effect of over 55% in size
Details: yeast TDP-43 toxicity rescue, BacTiter-Glo growth, 24 h; series mostly up to 46.1 µM; growth rescue (activation): at the top concentration
How it was run: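 TDP-43-expressing yeast, pregrown in raffinose, seeded at OD600 0.02 in galactose medium with compound for 24 hr at 30 deg C. Growth read by BacTiter-Glo luminescence, so rescue of toxicity appears as activation.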

Row | Structure (SMILES) | growth rescue (activation)
1 | Cc1ccc(NS(=O)(=O)c2ccc(C(=O)Nc3nncs3)cc2)cc1 | inactive: 9.42%
2 | Cc1nn(-c2ccccc2)c(Cl)c1/C=N/NC(=O)c1ccc(CNc2ccccc2)o1 | inactive: 4.68%
3 | CC(=O)Nc1ccc(Nc2nc(C)nc3c2nnn3Cc2ccccc2Cl)cc1 | inactive: -24.8%
4 | CCOC(=O)N1CCN(C(=O)CNC(=O)c2ccccc2F)CC1 | inactive: 16.4%
5 | COc1cc(NC(=O)CCCNC(=O)c2ccc(Cl)cc2)cc(OC)c1 | inactive: 13.3%
6 | O=c1cc[nH]c2c1ccc1c(=O)cc[nH]c12 | inactive: 9.16%
7 | CC(C)OC(=O)c1ccccc1C(=O)c1ccc(N)c([N+](=O)[O-])c1 | inactive: 11.7%
8 | CC1(C(=O)NS(=O)(=O)c2ccccc2)CCN1C(=O)Cc1ccccc1 (configuration not stated) | inactive: 4.1%
9 | COc1ccc(C2(c3ccc(OC)cc3)NC(=O)N(CC(=O)Nc3ccccc3)C2=O)cc1 | inactive: 11.4%
10 | Cc1cc(Br)c(NC(=O)CN2CCCC2)c(Br)c1 | inactive: 4.42%
11 | CC(C)OC(=O)c1cccc(C(=O)Nc2cccc(NC(=O)c3cccc(C(=O)OC(C)C)n3)n2)n1 | inactive: -10.2%
12 | COC(=O)C1=C(C)NC(C)=C(C(=O)OC)C1C(=O)OCC(=O)N1c2ccccc2CC1C (configuration not stated) | inactive: -5.68%
13 | CCN(CC(=O)NCc1cccs1)C(=O)c1ccc(C)o1 | inactive: -3.22%
14 | CCC(=O)N1CCC1(C)C(=O)Nc1ncc(C)s1 (configuration not stated) | inactive: -4.28%
15 | CCCCNC(=O)c1ccc(/C=C2\Oc3ccccc3N(C)C2=O)cc1 | inactive: 0.907%
16 | CCc1nc2c(OCCc3cccc(OC)c3)cccn2c1N(C)C(=O)c1ccc(OC)cc1 | inactive: -5.99%
17 | O=c1[nH]c2ccccc2cc1CN(CC1CCCO1)S(=O)(=O)c1ccc(Cl)cc1 (configuration not stated) | inactive: 4.52%
18 | CC1=C(C(=O)OCc2ccccc2)C(c2cccs2)N2C(=O)CCSC2=N1 (configuration not stated) | inactive: 2.83%
19 | CC(=O)c1ccc(OCC(C)C)c(Cc2c(O)nc(N)[nH]c2=O)c1 | inactive: 4.51%
20 | CCOc1ccc2nc(SCC(=O)N3c4ccccc4Sc4ccccc43)c(C#N)cc2c1 | inactive: -4.24%
21 | O=C(CSc1ncnc2c1oc1ccccc12)c1cccs1 | inactive: 17.6%
22 | CCc1cc2ccccc2nc1SCC(=O)NC1CCCC1 | inactive: 8.89%
23 | Cc1cc(C)n2nc(SCc3ccccc3F)nc2n1 | inactive: 28.8%

Row | Structure (SMILES) | growth rescue (activation)
24 | CC(C)(C)C1CCC(OC(=O)C[N+]2(C)CCCCC2)CC1 (configuration not stated) | inactive: 6.61%
25 | COc1ccc(Cl)cc1NC(=O)CCN1CCOCC1 | inactive: 5.51%
26 | CCc1ccccc1NC(=O)N1CCC2(CC1)Oc1ccccc1C(=O)N2Cc1ccccc1F | inactive: 2.3%
27 | COc1cc(-c2nnc(CSc3nnc(Nc4ccc(Oc5ccccc5)cc4)s3)o2)cc(OC)c1OC | inactive: 13.7%
28 | CCCCN(CC)CCNC(=O)CCNC(=O)Cn1ccc2ccccc2c1=O | inactive: 8.03%
29 | CCN(c1ccccc1)S(=O)(=O)c1ccc(Cl)c(NC(=O)CNC(C)c2ccccc2)c1 (configuration not stated) | inactive: 12.1%
30 | COc1cc(/C=C/C(=O)N2CCN(CC(O)COc3ccccc3)CC2)cc(OC)c1OC (configuration not stated) | inactive: 10.6%
31 | COc1cc(CCC(=O)OCC(=O)Nc2cccc(S(N)(=O)=O)c2)cc(OC)c1OC | inactive: 9.03%
32 | O=C(COC(=O)Cn1cnc2ccccc21)NCCCc1ccccc1 | inactive: 8.49%
33 | COc1ccc(NC(=O)CCNC(=O)Cn2cnc3sc4c(c3c2=O)CCCC4)cc1OC | inactive: 10.7%
34 | Cc1cc(CN(C)C(=O)CC2C(=O)NCCN2Cc2c(F)cccc2Cl)n[nH]1 (configuration not stated) | inactive: -14.8%
35 | Cn1c(CO)cnc1SCC(=O)c1ccc(Cl)cc1 | inactive: 0.442%
36 | Cc1ccc(C)c(NC(=S)N(C)CCc2ccccn2)c1 | inactive: 9.03%
37 | Cc1c(C(=O)NCCNc2ncc(C(F)(F)F)cc2Cl)cccc1[N+](=O)[O-] | inactive: 14.7%
38 | Cc1cc(O)ccc1NC(=O)CCN1C(=O)c2ccc([N+](=O)[O-])cc2C1=O | inactive: 4.77%
39 | CCOc1ccc(OCC)c(NC(=O)CSCCc2ccccn2)c1 | inactive: 6.19%
40 | Cc1cc(C)c2[nH]c(=O)c(CN(Cc3cccs3)C(=S)NCC3CCCO3)cc2c1 (configuration not stated) | inactive: 2.9%
41 | CCCNC(=O)C1(C)CCCN(Cc2noc(-c3c(C)noc3C)n2)C1 (configuration not stated) | inactive: 4.13%
42 | O=C(CN(Cc1ccccc1)C(=O)CCC(=O)Nc1ccccn1)NCCc1ccccc1 | inactive: 9.46%
43 | Cc1cccc(OCC(=O)Nc2cccc(C(=O)Nc3ccccc3C(=O)O)c2)c1 | inactive: -29.6%
44 | Cc1cccc(OCCCCCN2CCOCC2)c1C | inactive: 5.03%
45 | COc1ccccc1N(CC(=O)NCc1ccc(F)cc1)C(=O)CCC(=O)Nc1ccccn1 | inactive: 0.543%
46 | CCNC(=O)CC1C(=O)N(CC)C(=S)N1NC(=O)c1cccnc1 (configuration not stated) | inactive: 5.9%

Row | Structure (SMILES) | growth rescue (activation)
47 | Clc1ccc(CON/C=N/c2ncnc3sccc23)c(Cl)c1 | inactive: -3.14%
48 | Cc1no[n+]([O-])c1COc1ccccc1/C=N/n1nnnc1N | inactive: 15.3%
49 | C=CC[C@H]1Cc2c(cccc2[N+](=O)[O-])[C@H](CC=C)N1 | inactive: -1.03%
50 | COc1ccc(-n2cnc3sc4c(c3c2=O)CCCC4)cc1 | inactive: 25.9%
51 | CCCCN(CCCC)C(=O)CSc1nnc2n(C)c(=O)c3c4c(sc3n12)CCCC4 | inactive: -11.1%
52 | Cc1ccc(C(=O)N2CCOCC2)cc1S(=O)(=O)N1CCCCC1 | inactive: 9.22%
53 | CCOC(=O)CC(NC(=O)CCc1c(C)nc2nc(C)nn2c1C)c1ccc(OC(C)C)cc1 (configuration not stated) | inactive: -2.11%
54 | CSC(=NC#N)N1CCN(C(=NC#N)SC)CC1 | inactive: -9.66%
55 | O=C(O)CN1CCN(Cc2cccc(Cl)c2)C1=O | inactive: 1.59%
56 | Cc1cccc(-c2cccc(NC(=O)C3CCCN(Cc4cccnc4)C3)c2)c1 (configuration not stated) | inactive: -7.3%
57 | COc1ccccc1NCC(=O)c1ccc(Cl)cc1 | inactive: -1.36%
58 | CC1CN(C(=S)SCC(=O)c2ccc(Cl)cc2)CC(C)O1 (configuration not stated) | inactive: 35.1%
59 | CC1(C)CC(=O)C(=Cc2cn(-c3ccccc3)nc2-c2ccc(Cl)cc2)C(=O)C1 | inactive: -3.02%
60 | Cc1ccc2nc(/N=C(\N)NC(=O)NC3CCCCC3)nc(C)c2c1 | inactive: 11%
61 | COc1cc(/C=C2/NC(=O)N(Cc3ccccc3F)C2=O)ccc1Oc1ccc([N+](=O)[O-])cn1 | inactive: 10.5%
62 | COc1cc(Nc2c3c(nc4ccccc24)CCCC3)cc(OC)c1OC | inactive: 3.35%
63 | Cc1cc(Cl)cc(Cl)c1CNc1c([N+](=O)[O-])c(=O)oc2ccccc12 | inactive: -1.05%
64 | NC(N)=NN=C1CCCCCCCCCCC1 | inactive: 7.16%
65 | CCN(CC(=O)Nc1cc(Cl)ccc1C)C(=O)CC1CCCC1 | inactive: 44.3%
66 | O=C(c1ccc(Cl)c(S(=O)(=O)N2CCc3ccccc32)c1)N1CCN(c2ccccc2O)CC1 | inactive: 21.2%
67 | CCCN(CC1CC1)C(=O)COC(=O)c1ccc2c(c1)C(=O)N(c1ccc(OCC)cc1)C2=O | inactive: 10.8%
